In patent publication US7592316B2, “Peptides as NS3-serine protease inhibitors of hepatitis C virus” (Schering Corporation, priority 2000, dated 2009):
*1 amine or outer side, *2 acyl side, *3 side chain or, on linkers, in order; H or OH if unused. Where a SMILES comes first, the peptide text is derived from it. [ ]: non-standard residue; d: D form. The star is where a group is joined. ξ: configuration not given here. Phenylacetyl(2,3,4,5,6-F5) = O=C(Cc1c(F)c(F)c(F)c(F)c1F)*; Pro(3R,4S-CMe2) = CC1(C)[C@@H]2[C@@H](C(=O)O)NC[C@@H]21; ξ(3-Amino-2-oxopentanoyl) = CCC(N[*:1])C(=O)C(=O)[*:2]; Pro(3S,4R-CMe2) = CC1(C)[C@H]2[C@@H](C(=O)O)NC[C@H]21; Phenylacetyl(3-CH2COOH) = O=C(O)Cc1cccc(CC(=O)*)c1; Isobutoxycarbonyl(1S-Me) = CC(C)[C@H](C)OC(=O)*; Phenylacetyl(3-CF3) = O=C(Cc1cccc(C(F)(F)F)c1)*; Phenylacetyl(4-CF3) = O=C(Cc1ccc(C(F)(F)F)cc1)*; ξLeu(ψCOCO) = CC(C)CC(N[*:1])C(=O)C(=O)[*:2]; NH(1-Adamantyl) = C1C2CC3CC1CC(N*)(C2)C3; Phenylacetyl(3-Cl) = O=C(Cc1cccc(Cl)c1)*; Phenylacetyl(4-Cl) = O=C(Cc1ccc(Cl)cc1)*; Pro(4,4-Me2) = CC1(C)CN[C@H](C(=O)O)C1; ξPhg(3-Cl) = NC(C(=O)O)c1cccc(Cl)c1; Pentanoyl(2-Pr) = CCCC(CCC)C(=O)*; X4 = CCCCC(N[*:1])C(=O)C(=O)[*:2]; Hyp = O=C(O)[C@@H]1C[C@@H](O)CN1; X2 = CCCC(N[*:1])C(=O)C(=O)[*:2]; CH2CO2tBu = CC(C)(C)OC(=O)C*; Chg = N[C@H](C(=O)O)C1CCCCC1; Phg = N[C@H](C(=O)O)c1ccccc1; Tle = CC(C)(C)[C@H](N)C(=O)O; ξChg = NC(C(=O)O)C1CCCCC1; Carboxymethyl = O=C(O)C*; NHcHex = C1CCC(N*)CC1; ξNle = CCCCC(N)C(=O)O; CO = O=C([*:1])[*:2]; NHPh = c1ccc(N*)cc1; Bn = c1ccc(C*)cc1; tBu = CC(C)(C)*

These compounds were tested against HCV NS3/NS4A protease (strain 1a) (Hepatitis C virus genotype 1a, UniProt P27958) (assay: biochemical). Details: Compounds prepared by Solid Phase Synthesis, Table 3; read-out: Ki* CLASS.

**Q.** For `CCCCC(NC(=O)CNC(=O)C(=O)C(CCC)NC(=O)[C@@H]1C[C@@H](OCC(=O)OC(C)(C)C)CN1C(=O)C(NC(=O)C(CCC)CCC)C1CCCCC1)C(N)=O` (some centres unmarked) ({Pentanoyl(2-Pr)}-[ξChg][Hyp](CH2CO2tBu)[X2]G[ξNle]-NH2), which Ki is on record?
**A.** > 1000 nM

**Q.** How did the Ki turn out when `CCCCC(NC(=O)CNC(=O)C(=O)C(CCC)NC(=O)[C@@H]1C[C@@H](OCC(=O)O)CN1C(=O)C(NC(=O)C(CCC)CCC)C1CCCCC1)C(N)=O` (some centres unmarked) ({Pentanoyl(2-Pr)}-[ξChg][Hyp](Carboxymethyl)[X2]G[ξNle]-NH2) was run?
**A.** > 1000 nM

**Q.** `CCCCC(NC(=O)CNC(=O)C(=O)C(CCC)NC(=O)[C@@H]1C[C@@H](OC(C)(C)C)CN1C(=O)C(NC(=O)C(CCC)CCC)C1CCCCC1)C(N)=O` (some centres unmarked) ({Pentanoyl(2-Pr)}-[ξChg][Hyp](tBu)[X2]G[ξNle]-NH2) was tested. Which Ki did it give?
**A.** 101 to 1000 nM

**Q.** Which Ki does the source give for `CCCC(NC(=O)[C@@H]1C[C@@H](OC(C)(C)C)CN1C(=O)[C@@H](NC(=O)Cc1c(F)c(F)c(F)c(F)c1F)C1CCCCC1)C(=O)C(=O)NCC(=O)NC(C(N)=O)c1cccc(Cl)c1` (some centres unmarked) ({Phenylacetyl(2,3,4,5,6-F5)}-[Chg][Hyp](tBu)[X2]G[ξPhg(3-Cl)]-NH2) here?
**A.** 101 to 1000 nM

**Q.** Which Ki does the source give for `CC(C)CC(NC(=O)[C@@H]1C[C@@H](OC(C)(C)C)CN1C(=O)[C@@H](NC(=O)Cc1c(F)c(F)c(F)c(F)c1F)C1CCCCC1)C(=O)C(=O)NCC(=O)N[C@H](C(N)=O)c1ccccc1` (some centres unmarked) ({Phenylacetyl(2,3,4,5,6-F5)}-[Chg][Hyp](tBu)[ξLeu(ψCOCO)]G[Phg]-NH2) here?
**A.** > 1000 nM

**Q.** How did the Ki turn out when `CCCCC(NC(=O)CNC(=O)C(=O)C(CCC)NC(=O)[C@@H]1C[C@@H](OC(C)(C)C)CN1C(=O)C(NC(=O)Cc1cccc(C(F)(F)F)c1)C1CCCCC1)C(N)=O` (some centres unmarked) ({Phenylacetyl(3-CF3)}-[ξChg][Hyp](tBu)[X2]G[ξNle]-NH2) was run?
**A.** 101 to 1000 nM

**Q.** Which Ki does the source give for `CCCC(NC(=O)[C@@H]1C[C@@H](OC(C)(C)C)CN1C(=O)[C@@H](NC(=O)Cc1cccc(CC(=O)O)c1)C1CCCCC1)C(=O)C(=O)NCC(=O)N[C@H](C(N)=O)c1ccccc1` (some centres unmarked) ({Phenylacetyl(3-CH2COOH)}-[Chg][Hyp](tBu)[X2]G[Phg]-NH2) here?
**A.** > 1000 nM

**Q.** Which Ki does the source give for `CCC(NC(=O)[C@@H]1C[C@@H](OC(C)(C)C)CN1C(=O)[C@@H](NC(=O)Cc1cccc(CC(=O)O)c1)C1CCCCC1)C(=O)C(=O)NCC(=O)N[C@H](C(N)=O)c1ccccc1` (some centres unmarked) ({Phenylacetyl(3-CH2COOH)}-[Chg][Hyp](tBu)[ξ(3-Amino-2-oxopentanoyl)]G[Phg]-NH2) here?
**A.** 101 to 1000 nM

**Q.** How did the Ki turn out when `CCCCC(NC(=O)C(CCCC)NC(=O)CNC(=O)C(=O)C(CCC)NC(=O)[C@@H]1C[C@@H](OCc2ccccc2)CN1C(=O)C(NC(=O)Cc1cccc(CC(=O)O)c1)C1CCCCC1)C(N)=O` (some centres unmarked) ({Phenylacetyl(3-CH2COOH)}-[ξChg][Hyp](Bn)[X2]G[ξNle][ξNle]-NH2) was run?
**A.** 101 to 1000 nM

**Q.** How did the Ki turn out when `CCCCC(NC(=O)CNC(=O)C(=O)C(CCC)NC(=O)[C@@H]1C[C@@H](OCC(=O)OC(C)(C)C)CN1C(=O)C(NC(=O)Cc1cccc(Cl)c1)C1CCCCC1)C(N)=O` (some centres unmarked) ({Phenylacetyl(3-Cl)}-[ξChg][Hyp](CH2CO2tBu)[X2]G[ξNle]-NH2) was run?
**A.** > 1000 nM

**Q.** For `CCCCC(NC(=O)CNC(=O)C(=O)C(CCC)NC(=O)[C@@H]1C[C@@H](OC(C)(C)C)CN1C(=O)C(NC(=O)Cc1ccc(C(F)(F)F)cc1)C1CCCCC1)C(N)=O` (some centres unmarked) ({Phenylacetyl(4-CF3)}-[ξChg][Hyp](tBu)[X2]G[ξNle]-NH2), which Ki is on record?
**A.** 101 to 1000 nM

**Q.** `CCCCC(NC(=O)CNC(=O)C(=O)C(CCC)NC(=O)[C@@H]1C[C@@H](OCC(=O)OC(C)(C)C)CN1C(=O)C(NC(=O)Cc1ccc(Cl)cc1)C1CCCCC1)C(N)=O` (some centres unmarked) ({Phenylacetyl(4-Cl)}-[ξChg][Hyp](CH2CO2tBu)[X2]G[ξNle]-NH2) was tested. Which Ki did it give?
**A.** > 1000 nM

Same assay, conditions: Table 5; HCV NS3/NS4A protease, spectrophotometric assay, 30° C., pH 6.5; read-out: Ki* Range

**Q.** `CC(C)CC(NC(=O)[C@@H]1CC(C)(C)CN1C(=O)[C@@H](NC(=O)O[C@@H](C)C(C)C)C(C)(C)C)C(=O)C(=O)NCC(=O)N[C@H](C(=O)N(C)C)c1ccccc1` (stereo partly drawn) ({Isobutoxycarbonyl(1S-Me)}-[Tle][Pro(4,4-Me2)][ξLeu(ψCOCO)]G[Phg]-NMe2) was tested. Which Ki did it give?
**A.** 1 to 100 nM

**Q.** Which Ki does the source give for `CCCC(NC(=O)[C@@H]1[C@@H]2[C@H](CN1C(=O)[C@@H](NC(=O)NC13CC4CC(CC(C4)C1)C3)C(C)(C)C)C2(C)C)C(=O)C(=O)NCC(=O)N[C@H](C(=O)N(C)C)c1ccccc1` (stereo partly drawn) ({NH(1-Adamantyl)-CO}-[Tle][Pro(3R,4S-CMe2)][X2]G[Phg]-NMe2) here?
**A.** 1 to 100 nM

**Q.** For `CCCCC(NC(=O)[C@@H]1[C@H]2[C@@H](CN1C(=O)[C@@H](NC(=O)Nc1ccccc1)C(C)(C)C)C2(C)C)C(=O)C(=O)NCC(=O)N[C@H](C(=O)N(C)C)c1ccccc1` (stereo partly drawn) ({NHPh-CO}-[Tle][Pro(3S,4R-CMe2)][X4]G[Phg]-NMe2), which Ki is on record?
**A.** 1 to 100 nM

**Q.** `CCCC(NC(=O)[C@@H]1[C@@H]2[C@H](CN1C(=O)[C@@H](NC(=O)NC1CCCCC1)C(C)(C)C)C2(C)C)C(=O)C(=O)NCC(=O)N[C@H](C(=O)N(C)C)c1ccccc1` (stereo partly drawn) ({NHcHex-CO}-[Tle][Pro(3R,4S-CMe2)][X2]G[Phg]-NMe2) was tested. Which Ki did it give?
**A.** 1 to 100 nM

**Q.** Which Ki does the source give for `CCCCC(NC(=O)[C@@H]1[C@H]2[C@@H](CN1C(=O)[C@@H](NC(=O)NC1CCCCC1)C(C)(C)C)C2(C)C)C(=O)C(=O)NCC(=O)N[C@H](C(=O)N(C)C)c1ccccc1` (stereo partly drawn) ({NHcHex-CO}-[Tle][Pro(3S,4R-CMe2)][X4]G[Phg]-NMe2) here?
**A.** 1 to 100 nM
